# The supplement of paper PMC8728848
# The list shows a part of the results.
# B1: GS7807H-bfa-490-18-490 (Bacteroides fragilis) (protein)
# chain: GNLEEMNIDPDNATQTHPKLLLTQICMNAFKRGTDGMYATKKVIQADGESADQYYKWTRGSFGYYDNLRNVQKMGEEAERVNAPVYTALTKFFRAYYFYELTLRFGDIPYSQALKGEKEEIYTPEYDAQEDVFAGILQELREADEILANDASVIDGDIIYNGNSTQWRKLINSFRLKVLMTLSNHTTVGNINIASEFKNIATNSPLMNSLADNGQLVYLDQQGNRYPQFNAQWSGYYMDDTFIQRMRERRDPRLFIFSAQTNKGKTEGKPIDDFSSYEGGDPAAPYSDAIIKVSEGTISPINDRFRTDPIVEPTMLMGYAELQQILAEAVVRGWISGNAQTYYEKGIRASFSFYETHAKDYAGYLNENAVAQYLKEPLVDFTQASGTEEQIERIIMQKYLVTFYQGNWDSFYEQLRTGYPDFRRPAGTEIPKRWMYPQGEYDNNGTNVETAITRQFGAGNDKINQATWWQKKS
# Experiments:
# Experiment in all cases: glycan array binding signal (z-score within array); higher = stronger binding
# Settings in all cases: glycan notation: IUPAC condensed, linker removed
# [1] = target: Gal(b1-4)Glc
# Method in brief: (§1)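 From the Consortium for Functional Glycomics database, 3228 arrays were curated, keeping only those whose protein sequence was available. Binding is given as a within-array Z-score averaged across arrays sharing a protein sequence and across linkers. Negative Z-scores can be read as non-binding.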
# [2] = target: Gal(b1-4)Glc6S
# Method in brief: as §1
# [3] = target: Gal(b1-4)GlcNAc
# Method in brief: as §1
# [4] = target: Gal(b1-4)GlcNAc(a1-6)Gal(b1-4)GlcNAc
# Method in brief: as §1
# [5] = target: Gal(b1-4)GlcNAc(b1-2)Man
# Method in brief: as §1
# [6] = target: Gal(b1-4)GlcNAc(b1-2)Man(a1-3)Man(b1-4)GlcNAc(b1-4)GlcNAc
# Method in brief: as §1
# [7] = target: Gal(b1-4)GlcNAc(b1-2)Man(a1-3)[Gal(b1-4)GlcNAc(b1-2)Man(a1-6)]Man(b1-4)GlcNAc(b1-4)GlcNAc
# Method in brief: as §1
# [8] = target: Gal(b1-4)GlcNAc(b1-2)Man(a1-3)[Gal(b1-4)GlcNAc(b1-2)Man(a1-6)]Man(b1-4)GlcNAc(b1-4)[Fuc(a1-6)]GlcNAc
# Method in brief: as §1
# [9] = target: Gal(b1-4)GlcNAc(b1-2)Man(a1-3)[Gal(b1-4)GlcNAc(b1-2)Man(a1-6)][Gal(b1-4)GlcNAc(b1-4)]Man(b1-4)GlcNAc(b1-4)[Fuc(a1-6)]GlcNAc
# Method in brief: as §1
# [10] = target: Gal(b1-4)GlcNAc(b1-2)Man(a1-3)[Gal(b1-4)GlcNAc(b1-2)Man(a1-6)][GlcNAc(b1-4)]Man(b1-4)GlcNAc(b1-4)[Fuc(a1-6)]GlcNAc
# Method in brief: as §1
# [11] = target: Gal(b1-4)GlcNAc(b1-2)Man(a1-3)[GlcNAc(b1-2)Man(a1-6)]Man(b1-4)GlcNAc(b1-4)GlcNAc
# Method in brief: as §1
# [12] = target: Gal(b1-4)GlcNAc(b1-2)Man(a1-3)[GlcNAc(b1-4)][Gal(b1-4)GlcNAc(b1-2)Man(a1-6)]Man(b1-4)GlcNAc(b1-4)GlcNAc
# Method in brief: as §1
# [13] = target: Gal(b1-4)GlcNAc(b1-2)Man(a1-3)[Man(a1-6)]Man(b1-4)GlcNAc(b1-4)GlcNAc
# Method in brief: as §1
# [14] = target: Gal(b1-4)GlcNAc(b1-2)Man(a1-6)Man(b1-4)GlcNAc(b1-4)GlcNAc
# Method in brief: as §1
# [15] = target: Gal(b1-4)GlcNAc(b1-2)Man(a1-6)[GlcNAc(b1-2)Man(a1-3)]Man(b1-4)GlcNAc(b1-4)GlcNAc
# Method in brief: as §1
# [16] = target: Gal(b1-4)GlcNAc(b1-2)Man(a1-6)[Man(a1-3)]Man(b1-4)GlcNAc(b1-4)GlcNAc
# Method in brief: as §1
# [17] = target: Gal(b1-4)GlcNAc(b1-2)[Gal(b1-4)GlcNAc(b1-4)]Man(a1-3)[Gal(b1-4)GlcNAc(b1-2)Man(a1-6)]Man(b1-4)GlcNAc(b1-4)GlcNAc
# Method in brief: as §1
# [18] = target: Gal(b1-4)GlcNAc(b1-2)[Gal(b1-4)GlcNAc(b1-4)]Man(a1-3)[Gal(b1-4)GlcNAc(b1-2)[Gal(b1-4)GlcNAc(b1-6)]Man(a1-6)]Man(b1-4)GlcNAc(b1-4)GlcNAc
# Method in brief: as §1
# [19] = target: Gal(b1-4)GlcNAc(b1-2)[Gal(b1-4)GlcNAc(b1-4)]Man(a1-3)[GlcNAc(b1-4)][Gal(b1-4)GlcNAc(b1-2)Man(a1-6)]Man(b1-4)GlcNAc(b1-4)GlcNAc
# Method in brief: as §1
# [20] = target: Gal(b1-4)GlcNAc(b1-2)[Gal(b1-4)GlcNAc(b1-4)]Man(a1-3)[GlcNAc(b1-4)][Gal(b1-4)GlcNAc(b1-2)[Gal(b1-4)GlcNAc(b1-6)]Man(a1-6)]Man(b1-4)GlcNAc(b1-4)GlcNAc
# Method in brief: as §1
# [21] = target: Gal(b1-4)GlcNAc(b1-2)[Gal(b1-4)GlcNAc(b1-6)]Man(a1-6)[Gal(b1-4)GlcNAc(b1-2)Man(a1-3)]Man(b1-4)GlcNAc(b1-4)GlcNAc
# Method in brief: as §1
# [22] = target: Gal(b1-4)GlcNAc(b1-2)[Gal(b1-4)GlcNAc(b1-6)]Man(a1-6)[Gal(b1-4)GlcNAc(b1-2)Man(a1-3)]Man(b1-4)GlcNAc(b1-4)[Fuc(a1-6)]GlcNAc
# Method in brief: as §1
# [23] = target: Gal(b1-4)GlcNAc(b1-2)[Gal(b1-4)GlcNAc(b1-6)]Man(a1-6)[GlcNAc(b1-4)][Gal(b1-4)GlcNAc(b1-2)Man(a1-3)]Man(b1-4)GlcNAc(b1-4)GlcNAc
# Method in brief: as §1
# [24] = target: Gal(b1-4)GlcNAc(b1-2)[Gal(b1-4)GlcNAc(b1-6)]Man(a1-6)[GlcNAc(b1-4)][Gal(b1-4)GlcNAc(b1-2)[Gal(b1-4)GlcNAc(b1-4)]Man(a1-3)]Man(b1-4)GlcNAc(b1-4)[Fuc(a1-6)]GlcNAc
# Method in brief: as §1
# [25] = target: Gal(b1-4)GlcNAc(b1-3)Gal(b1-3)GalNAc
# Method in brief: as §1
# [26] = target: Gal(b1-4)GlcNAc(b1-3)Gal(b1-3)GlcNAc
# Method in brief: as §1
# [27] = target: Gal(b1-4)GlcNAc(b1-3)Gal(b1-4)Glc
# Method in brief: as §1
# [28] = target: Gal(b1-4)GlcNAc(b1-3)Gal(b1-4)GlcNAc
# Method in brief: as §1
# [29] = target: Gal(b1-4)GlcNAc(b1-3)Gal(b1-4)GlcNAc(b1-2)Man(a1-3)[Gal(b1-4)GlcNAc(b1-3)Gal(b1-4)GlcNAc(b1-2)Man(a1-6)]Man(b1-4)GlcNAc(b1-4)GlcNAc
# Method in brief: as §1
# [30] = target: Gal(b1-4)GlcNAc(b1-3)Gal(b1-4)GlcNAc(b1-2)Man(a1-3)[Gal(b1-4)GlcNAc(b1-3)Gal(b1-4)GlcNAc(b1-2)Man(a1-6)]Man(b1-4)GlcNAc(b1-4)[Fuc(a1-6)]GlcNAc
# Method in brief: as §1
# [31] = target: Gal(b1-4)GlcNAc(b1-3)Gal(b1-4)GlcNAc(b1-2)[Gal(b1-4)GlcNAc(b1-3)Gal(b1-4)GlcNAc(b1-6)]Man(a1-6)[Gal(b1-4)GlcNAc(b1-3)Gal(b1-4)GlcNAc(b1-2)Man(a1-3)]Man(b1-4)GlcNAc(b1-4)GlcNAc
# Method in brief: as §1
# [32] = target: Gal(b1-4)GlcNAc(b1-3)Gal(b1-4)GlcNAc(b1-2)[Gal(b1-4)GlcNAc(b1-3)Gal(b1-4)GlcNAc(b1-6)]Man(a1-6)[Gal(b1-4)GlcNAc(b1-3)Gal(b1-4)GlcNAc(b1-2)Man(a1-3)]Man(b1-4)GlcNAc(b1-4)[Fuc(a1-6)]GlcNAc
# Method in brief: as §1
# [33] = target: Gal(b1-4)GlcNAc(b1-3)Gal(b1-4)GlcNAc(b1-3)Gal(b1-4)GlcNAc
# Method in brief: as §1
# [34] = target: Gal(b1-4)GlcNAc(b1-3)Gal(b1-4)GlcNAc(b1-3)Gal(b1-4)GlcNAc(b1-2)Man(a1-3)[Gal(b1-4)GlcNAc(b1-3)Gal(b1-4)GlcNAc(b1-3)Gal(b1-4)GlcNAc(b1-2)Man(a1-6)]Man(b1-4)GlcNAc(b1-4)GlcNAc
# Method in brief: as §1
# [35] = target: Gal(b1-4)GlcNAc(b1-3)Gal(b1-4)GlcNAc(b1-3)Gal(b1-4)GlcNAc(b1-2)Man(a1-3)[Gal(b1-4)GlcNAc(b1-3)Gal(b1-4)GlcNAc(b1-3)Gal(b1-4)GlcNAc(b1-2)Man(a1-6)]Man(b1-4)GlcNAc(b1-4)[Fuc(a1-6)]GlcNAc
# Method in brief: as §1
# [36] = target: Gal(b1-4)GlcNAc(b1-3)Gal(b1-4)GlcNAc(b1-3)Gal(b1-4)GlcNAc(b1-2)[Gal(b1-4)GlcNAc(b1-3)Gal(b1-4)GlcNAc(b1-3)Gal(b1-4)GlcNAc(b1-6)]Man(a1-6)[Gal(b1-4)GlcNAc(b1-3)Gal(b1-4)GlcNAc(b1-3)Gal(b1-4)GlcNAc(b1-2)Man(a1-3)]Man(b1-4)GlcNAc(b1-4)[Fuc(a1-6)]GlcNAc
# Method in brief: as §1
# [37] = target: Gal(b1-4)GlcNAc(b1-3)Gal(b1-4)GlcNAc(b1-3)Gal(b1-4)GlcNAc(b1-3)Gal(b1-4)GlcNAc(b1-2)Man(a1-3)[Gal(b1-4)GlcNAc(b1-3)Gal(b1-4)GlcNAc(b1-3)Gal(b1-4)GlcNAc(b1-3)Gal(b1-4)GlcNAc(b1-2)Man(a1-6)]Man(b1-4)GlcNAc(b1-4)GlcNAc
# Method in brief: as §1
binder,measurement,setting,value
B1,glycan array binding signal (z-score),[1],-0.6
same,glycan array binding signal (z-score),[2],-0.24
same,glycan array binding signal (z-score),[3],0.14
same,glycan array binding signal (z-score),[4],-0.003
same,glycan array binding signal (z-score),[5],-0.322
same,glycan array binding signal (z-score),[6],-0.197
same,glycan array binding signal (z-score),[7],-0.459
same,glycan array binding signal (z-score),[8],1.09
same,glycan array binding signal (z-score),[9],-1.01
same,glycan array binding signal (z-score),[10],-0.8
same,glycan array binding signal (z-score),[11],-0.5
same,glycan array binding signal (z-score),[12],0.096
same,glycan array binding signal (z-score),[13],-0.044
same,glycan array binding signal (z-score),[14],-0.435
same,glycan array binding signal (z-score),[15],-0.465
same,glycan array binding signal (z-score),[16],-0.18
same,glycan array binding signal (z-score),[17],-0.018
same,glycan array binding signal (z-score),[18],-0.043
same,glycan array binding signal (z-score),[19],-0.67
same,glycan array binding signal (z-score),[20],-0.519
same,glycan array binding signal (z-score),[21],0.305
same,glycan array binding signal (z-score),[22],-0.207
same,glycan array binding signal (z-score),[23],-0.466
same,glycan array binding signal (z-score),[24],0.173
same,glycan array binding signal (z-score),[25],-0.184
same,glycan array binding signal (z-score),[26],-0.221
same,glycan array binding signal (z-score),[27],0.164
same,glycan array binding signal (z-score),[28],-0.224
same,glycan array binding signal (z-score),[29],0.869
same,glycan array binding signal (z-score),[30],-0.377
same,glycan array binding signal (z-score),[31],11.2
same,glycan array binding signal (z-score),[32],0.497
same,glycan array binding signal (z-score),[33],0.138
same,glycan array binding signal (z-score),[34],2.19
same,glycan array binding signal (z-score),[35],0.057
same,glycan array binding signal (z-score),[36],1.09
same,glycan array binding signal (z-score),[37],0.805
